Data as given in the supplement of paper PMC3334620.
Whole data set: some 33,000 sequences, median “E-score (-0.5 to 0.5)” near -0.016, cut for the highest 2% near 0.31. The list shows a part of the results.

target: Cst6 (UniProt P40535); experiment: PBM E-score (8-mer binding enrichment) (E-score (-0.5 to 0.5)); higher = stronger / more preferred TF binding; most listed sequences are background and not binding sites; settings: protein concentration: 200 nM; construct: GST-DNA-binding domain
How it was run: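 Using PURExpress in vitro transcription/translation, GST-tagged yeast transcription factors were made in full-length or DNA-binding-domain form. These were applied at about 100-200 nM to double-stranded universal all-10-mer Agilent arrays, and bound protein was detected with fluorescent anti-GST. Scans were normalised with masliner before the Universal PBM Analysis Suite assigned E-scores to ungapped eight-base words pooled with their reverse complements.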

Sequence | PBM E-score
AAGTGACC | -0.131
CGAAGGCA | -0.0818
AAGGACGT | 0.0462
TATGGGGA | -0.0452
ACATGCCG | 0.209
TAGCGCTA | -0.0968
ATCGGTAC | -0.0036
ATCATAGA | 0.246
CTATCGTC | 0.0875
CTGGCTTC | -0.186
ACGAAAAC | 0.296
AAAGTCGT | -0.0296
AAGCGGCT | 0.267
ATCCCAAC | 0.0418
CAAAACTG | 0.147
CTAGTAAA | 0.221
ACAGGCGA | -0.0976
CGACTGCC | -0.221
ATTAAACG | 0.193
ACAGCTCG | -0.167
GACCTTCA | -0.112
CGTCTGCC | -0.0528

Sequence | PBM E-score
ATTCTTGC | 0.0169
GCTCGGAC | -0.296
ACAGCAAA | 0.0947
CGTGGAAA | 0.261
AGAGCATA | -0.117
CGCAGCAC | 0.03
AATATGGG | -0.119
CTTGCTCA | -0.3
ACATACAT | 0.228
GCCGGAAC | -0.0605
ACATTTCA | 0.134
ATAGTTCA | 0.108
ATAATGCA | 0.144
AATCCCGA | 0.102
ACACCCGG | -0.161
AGTTGCAT | 0.205
AACAGGCA | -0.0324
GTCACCCA | 0.274
CTTACACA | -0.0478
CGTTTAGA | 0.00057
GAGCGCCA | -0.151
GTAGCAAC | -0.0141

Sequence | PBM E-score
CACGTTGG | -0.134
ACGGCGCG | 0.381
ACTCCATA | -0.0837
CGTCGACC | -0.0375
ATAGCCGC | 0.176
CACCGCAG | -0.116
AAGACCAG | -0.283
AACTACGC | 0.0324
GTCCACAC | -0.0192
GATATATC | 0.0563
ACTGAGTA | -0.14
CTGGAATA | 0.101
CAGCGGGA | -0.109
AGAAAATC | 0.233
ACGATTTC | 0.136
AGATCGAT | -0.0484
ACACACCG | -0.141
AGTCTCTG | -0.232
ATCAAGTC | 0.0221
ACCCACAG | -0.111
CGCGAATA | 0.0356
CAGAAATC | 0.0975

Sequence | PBM E-score
CAGACGTC | 0.113
CCGTGAAC | -0.153
CGATTTTA | 0.16
AAGGTTCT | 0.00233
CCTGGTTC | -0.185
CTATGTCC | -0.152
AAGAAAAC | 0.0298
ATATCGAA | 0.18
ATACGGAC | -0.0317
ACGATCTC | -0.189
ATGCTACC | -0.0641
CGCTACAG | -0.168
AAAGCGAT | 0.0977
GGAAAAAA | 0.143
CAAGACGC | -0.0744
ATTCGATA | 0.143
GAGAAAAA | 0.133
CACCAAGG | -0.176
TCCGGTAA | 0.00546
CGTAATGC | 0.365
AATACCTA | 0.071
TCAAGAAA | 0.199

Sequence | PBM E-score
AGAAGCAT | -0.0224
GCCGCAAA | 0.0342
ACCCTAAA | 0.0223
TATTAGAA | 0.224
AGGAAAAA | 0.0949
CCCATGGG | -0.0645
GTATACTA | -0.197
ACCATGGG | -0.264
GCAGGTAC | -0.338
GGTGAGCA | -0.184
CATAGCAA | 0.0986
CTCGTAAG | 0.241
GCATGTAC | 0.00158
CGGCTGAG | -0.127
CTCCCGAG | -0.36
CGAGTGCA | 0.0328
AGCTTATC | -0.0169
GCGGTGGA | -0.106
AGGCGGAT | -0.0368
CCTTACTC | 0.0253
ATTGCGAC | 0.132
CACTTCTC | -0.0949
